Test results reported in the supplement of paper PMC8728848.
The list shows a part of the results.

How the values were obtained:
Test in all cases: glycan array binding signal (z-score within array); higher = stronger binding
Details in all cases: glycan notation: IUPAC condensed, linker removed
[1] = target: Neu5Gc(a2-8)Neu5Gc(a2-3)Gal(b1-4)GlcNAc(b1-3)Gal(b1-4)GlcNAc
Outline: (§1)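 Glycan array data were curated from 3228 arrays in the Consortium for Functional Glycomics database and kept only where the protein sequence was available. Glycan names were converted to IUPAC-condensed notation, and columns mapping to the same glycan were averaged. The binding signal is a within-array Z-score, averaged across arrays of the same protein sequence at different concentrations or buffers and across linkers. Negative Z-scores can be read as non-binding.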

[2] = target: Neu5Gc(a2-8)Neu5Gc(a2-6)Gal(b1-4)GlcNAc
Outline: as §1

[3] = target: Neu5Gc(b2-6)Gal(b1-4)GlcNAc
Outline: as §1

B1: Sebin2 (Coprinopsis cinerea), A8PE78 (protein)
chain: MTTPFYAYCHNVQDDNTWRLGLVFANRSTADEWWRAISEATSSIPITKSITRVTPQYYTHDIRVWNMYNFFVDGNIKSISDKFRGRLFITLEYDRSGRGVSVFPPLHIVDHVSGNWYYIRSKTAPHLFWFYDETRNAIYASKEKRTRFKVSIRNPSPQTPKDAIMINSDDVVIHIKESLYVGVDSYLGHIIPTRAYRTFKFGELEGGAIAGIEVAENAEERCSSTFDGASLYFVGPDSSSPGEPWELV
glycan array binding signal (z-score) [1]: -0.327
glycan array binding signal (z-score) [2]: -0.567
glycan array binding signal (z-score) [3]: 0.148
